Measured values taken from PubChem BioAssay AID1745853 (National Center for Advancing Translational Sciences (NCATS), 2022).
The other results are listed elsewhere or left out. Shown are side measurements of this screen, not its main read-out; they come without a call.

Assays:
Assay in all cases: Primary Screen for Target Class Profiling of Small Molecule Inhibitors of Methyltransferases
[1] = target: Glycine N-methyltransferase (Homo sapiens) (UniProt Q14749); settings: purified enzyme, MTase-Glo SAH luminescence; measured here: GNMT inhibition; at 40 µM; stronger effect = lower value
Text: (§1) PI: Matthew D. Hall Ph.D. and Quinlin M. Hanson Ph.D.
(§2) National Center for Advancing Translational Sciences (NCATS)
(§3) National Institute of Health (NIH), Rockville, MD
(§4) Target class profiling (TCP) is a chemical biology approach amenable to investigating understudied biological targets. TCP is achieved by developing a generalizable assay platform and applying it to screen a curated set of compound libraries against representative members of a target class. Small molecule methyltransferases (SMMTase) are a subclass of methyltransferase that act on metabolites to modulate signaling pathways, metabolize xenobiotics, or balance the available methyl pool. We screened four curated libraries totaling 27,574 unique compounds against the SMMTases nicotinamide N-methyltransferase (NNMT), phenylethanolamine N-methyltransferase (PNMT), histamine N-methyltransferase (HNMT), glycine N-methyltransferase (GNMT), catechol O-methyltransferase (COMT), and guanidinoacetate N-methyltransferase (GAMT). The data generated by this TCP can be leveraged for informed tool molecule development. For example, in the associated publication we identified a chemotype of HNMT-selective inhibitors. Additionally, we identified a putative SMMTase-selective inhibitor with potential as a tool molecule for studying broader methyltransferase biology.
(§5) High-through put screening assays were developed at the National Center for Advancing Translational Science (NCATS) for the enzymes NNMT, PNMT, HNMT, GNMT, COMT, and GAMT. Enzymatic activity was measured as a function of SAM cofactor conversion using the MTase Glo kit (Promega) for all enzymes. All assays were performed in 1536-well format with substrates and SAM concentrations at KM values. Enzyme concentration and assay timing were optimized for 10-20% SAM conversion. Initial screening of 27,574 compounds was done as single-point assays using the highest compound concentration (40 uM). […] These compounds were replated in 11-point dose response and assayed against NNMT, PNMT, HNMT, GNMT, COMT, GAMT, and a counter-assay. The IC50 and efficacy (maximal response) values were determined for each dose-response curve. These values are also accounted for in the area under the curve (AUC) values.
(§6) PROTOCOL TABLE (as described by Inglese J, Shamu CE and Guy RK. 2007)
(§7) SEQUENCE No. (e.g., 1, 2, 3, etc.); […] (e.g., Cells, Incubation, Reagent, etc.); VALUE; DESCRIPTION.
(§8) 1; Reagent; 2 uL; SMMTase Enzyme (2x) in reaction buffer, columns 1- 48.
(§9) 2; Reagent; 1 uL; SAM (4x) in reaction buffer, columns 1-48.
(§10) 3; Controls; 23 nL; DMSO in column 4; sinefungin in DMSO (0 uM - 40 uM) in 7-point 1:2 dilution series (n = 2) in column 2.
(§11) 4; Compounds; 23 nL; Columns 5-48.
(§12) 5; Reagent; 1 uL; Substrate (4x) in reaction buffer, columns 2-48.
(§13) 6; Time; 20-30 min; Incubation.
(§14) 7; Reagent; 1 uL; MTase-Glo reagent (5X), columns 1-48.
(§15) 8; Time; 30 min; Incubation.
(§16) 9; Reagent; 5 uL; MTase-Glo Detection reagent, columns 1-48.
(§17) 10; Time; 30 min; Incubation, luminescence evolution.
(§18) 11; Detection; Luminescence; ViewLux uHTS Microplate Imager (PerkinElmer).
(§19) NOTES (numbers refer to Sequence numbers above)
(§20) 1, 2, 5. White Medium Binding Greiner 1536-well plates (Cat #789175-F, Greiner Bio-One, Monroe, NC); Reaction buffer: 50 mM Tris, pH 8.0, 3 mM MgCl2, 1 mM EDTA, 50 mM NaCl, 1 mM DTT, and 0.1 mg/mL BSA. Evaporation was prevented by covering assay plates with metal lids containing holes to allow gas diffusion.
(§21) 1. Six SMMTase were profiled: HNMT, GNMT, PNMT, COMT, NNMT, GAMT
(§22) 5. The corresponding substrate was used for each enzyme: HNMT - 5.3 uM Histamine; GNMT - >500 uM Glycine; PNMT - 16.2 uM Norephinephrine; COMT - 13.7 uM Norephinephrine; NNMT - 3.8 uM Nicotinamide; GAMT - 2.5 uM Guanidinoacetate.6, 8, 10. Room temperature
(§23) 6. Final reaction conditions: 10 nM COMT, 5 uM SAM, 15 uM norepinephrine, 50 mM Tris, pH 8.0, 3 mM MgCl2, 1 mM EDTA, 50 mM NaCl, 1 mM DTT, and 0.1 mg/mL BSA; refer to tables 2 and S1 for specific timing.
8. […]

[2] = target: Guanidinoacetate N-methyltransferase (Homo sapiens) (UniProt Q14353); settings: purified enzyme, MTase-Glo SAH luminescence; measured here: GAMT inhibition; at 40 µM; stronger effect = lower value
Text: as §1, §2, §3, §4, §5, §6, §7, §8, §9, §10, §11, §12, §13, §14, §15, §16, §17, §18, §19, §20, §21, §22, §23
8. […]

[3] = target: Histamine N-methyltransferase (Homo sapiens) (UniProt P50135); settings: purified enzyme, MTase-Glo SAH luminescence; measured here: HNMT inhibition; at 40 µM; stronger effect = lower value
Text: as §1, §2, §3, §4, §5, §6, §7, §8, §9, §10, §11, §12, §13, §14, §15, §16, §17, §18, §19, §20, §21, §22, §23
8. […]

[4] = target: Nicotinamide N-methyltransferase (Homo sapiens) (UniProt P40261); settings: purified enzyme, MTase-Glo SAH luminescence; measured here: NNMT inhibition; at 40 µM; stronger effect = lower value
Text: as §1, §2, §3, §4, §5, §6, §7, §8, §9, §10, §11, §12, §13, §14, §15, §16, §17, §18, §19, §20, §21, §22, §23
8. […]

[5] = target: Phenylethanolamine N-methyltransferase (Homo sapiens) (UniProt P11086); settings: purified enzyme, MTase-Glo SAH luminescence; measured here: PNMT inhibition; at 40 µM; stronger effect = lower value
Text: as §1, §2, §3, §4, §5, §6, §7, §8, §9, §10, §11, §12, §13, §14, §15, §16, §17, §18, §19, §20, §21, §22, §23
8. […]
% is scaled to controls: 0 for no effect and ±100 for the full control effect.

| Compound | activity change, negative = inhibition [1] | activity change, negative = inhibition [2] | activity change, negative = inhibition [3] | activity change, negative = inhibition [4] | activity change, negative = inhibition [5] |
| --- | --- | --- | --- | --- | --- |
| O=C(Nc1cccnn1)N1CCC(=Cc2cccc(Oc3ccc(C(F)(F)F)cn3)c2)CC1 | -2% | 2.37% | 9.74% | -26.1% | 0.602% |
| CN(C)[C@@H]1CN(C(=O)C2CCCCC2)CC[C@@H]1CO | 4.77% | 2.44% | 2.48% | -0.797% | -2.07% |
| CC1=C(C)C(=O)OC(C(C)(O)C2CCC3C4CC=C5CC(OC6OC(COC7OC(CO)C(O)C(O)C7O)C(O)C(O)C6O)CC(O)C5(C)C4CCC32C)C1 (stereo not given) | 2.16% | -3.94% | 8.73% | -14.9% | -2.07% |
| CC/C=C\CCO[C@@H]1O[C@H](CO)[C@@H](O)[C@H](O)[C@H]1O | -4.03% | -6.81% | 6% | -18.6% | -5.75% |
| O=C(Nc1cc(C(F)(F)F)cc(C(F)(F)F)c1)c1cc(Cl)ccc1O | -19.2% | 3.59% | 7.42% | -13.9% | 3.52% |
| CCN1CCN(c2nc3c(S(=O)(=O)c4ccc(C)cc4)nnn3c3ccccc23)CC1 | -0.386% | 4.53% | -32.4% | 1.55% | 3.21% |
| Cc1cccc(N2C(=O)c3cc(C(C)(C)C)nn3CC2(C)C(=O)NCc2ccccc2)c1C (stereo not given) | 4.89% | 0% | 4.18% | 7.11% | 1.86% |
| CCCCCC(=O)N(c1ccc(OCC)cc1)S(=O)(=O)c1ccc2c(c1)n(C)c(=O)n2C | 3.64% | 2.96% | 8.3% | -3.71% | 3.83% |
| COc1ccc(N2CCN(C(=O)c3cc4c(s3)-c3ccccc3S(=O)(=O)C4)CC2)cc1 | -3.05% | -14.4% | 3.05% | -28.2% | -13.6% |
| CCOC(=O)c1cc2n(n1)CC(C)(C(=O)NCCOC)N(c1cccc(F)c1)C2=O (stereo not given) | 7.74% | 0% | 11% | 5.72% | 5.82% |
| CCN1CCN(C(=O)C2CCCN(Cc3cccnc3)CCC(=O)NCC2)CC1 (stereo not given) | -1.89% | 0.863% | 0.528% | 4.88% | 1.15% |
| C/C=C/C=C/C=C/C(=O)O[C@@H]1[C@@H](OC)C2=C(C(=O)N(C(CCC(=O)O)C(=O)O)C2)[C@@]2(C)CCCC(C)(C)[C@H]12 (stereo not given in full) | -14.5% | -3.82% | 6.26% | -13.3% | 0.939% |
| Cc1nnc([C@@H]2CC(F)(F)CN2C(=O)COc2ccccc2)o1 | -0.79% | -0.774% | 2.65% | -8.84% | 1.04% |
| Cc1ccc(NC(=O)CSc2nnc3n(CCC(C)C)c(=O)c4ccccc4n23)cc1 | -1.81% | 0% | 5.77% | -1.2% | 3.59% |
| CC(=O)OC1C(c2ccccc2)CCC(c2ccccc2)C1OC(C)=O (stereo not given) | 0% | 6.51% | 7.78% | -6.91% | 2.23% |
| CN1CCC(C(=O)NCc2c[nH]c3ncccc23)CC1 | -5.17% | -6.36% | -13.5% | -9.6% | -2.38% |
